The text below walks through data of ChEMBL document CHEMBL1156829.

Structures are written as SMILES. The full ranking holds about 5,400 compounds; the median of “IFI” is about 2, and the highest 2% start at about 22. The list shows a part of the results.

The assay is described as follows: NOVARTIS: Inhibition Frequency Index (IFI) - the number of HTS assays where a compound showed > 50% inhibition/induction, expressed as a percentage of the number of assays in which the compound was tested. The class given is functional.
`N#Cc1cc(-c2cccc(C(F)(F)F)c2)cn(Cc2c(Cl)cccc2Cl)c1=O` returned an IFI of 5.26%. `COc1ccc(CN2C[C@H](Sc3nc4ccccc4[nH]3)C[C@H]2C(=O)NC2CC2)cc1C` yielded an IFI of 14.4%. For `CSC1=C(C#N)C(c2ccc(O)cc2)CC(=O)N1` (stereo not given), the IFI turned out to be 0.741%. With `CCc1nc(N)nc(N)c1-c1ccccc1` the figure was 0%; with `COc1cccc(/C=C2/SC(=Nc3ccccc3)NC2=O)c1OC`, 4.54%.

`CCn1cc(C(=O)N2CCC(C(=O)c3nccs3)CC2)c(C)n1` had an IFI of 0%. In the case of `OCc1nc2ccccc2n1CCOc1ccccc1`, the IFI is 0.794%. `COc1ccc2nc(-c3ccccc3)cc(NCCN(C)C)c2c1` yielded an IFI of 3.51%. As for `CCOC(=O)COC1=C(CCCCC2CCCCC2)C(=O)c2ccccc2C1=O`, the IFI worked out at 2.27%.

For `COc1ccc2nc(NC(=O)c3ccc(C#N)cc3)sc2c1`, the IFI was determined as 1.02%.

The molecule `CN(C)c1ccc(/C=C2/SC(=Nc3ccccc3)NC2=O)cc1` displayed an IFI of 3.45%. `CCOC(=O)C1=C(CC)NC2=C(C(=O)CC(C)(C)C2)C1c1ccccc1F` (stereo not given) showed an IFI of 4.6%.

For `COc1cc(CN(CCCN2CCOCC2)C(=O)Nc2cccc(C)c2)ccc1OCc1ccccc1`, the IFI came out at 1.77%. In turn, `CC(C)N(CC(=O)Nc1cc(C(C)(C)C)nn1-c1ccc(Cl)c(Cl)c1)C(=O)c1ccc(Cl)c(Cl)c1` returned an IFI of 1.85%. `Cc1ccc(-c2cc(C(=O)OCC(=O)c3cccc([N+](=O)[O-])c3)c3cc(C)ccc3n2)cc1` showed an IFI of 0%. On to `CN(CCCNc1ccnc2cc(Cl)ccc12)C(=O)c1ccc(Cl)cc1`, for which the IFI was found to be 6.48%. Molecule `CCOc1ccc(-c2cc(C)[n+](CCO)c(-c3ccc(OCC)cc3)c2)cc1` displayed an IFI of 7.27%. `COc1ccc(C2C(C(=O)Nc3cccc(Cl)c3)c3ccccc3C(=O)N2C2CCCCC2)cc1` (stereo not given) showed an IFI of 0%. `CCOC(=O)C1=C(C)NC2=C(C(=O)C(C(=O)OCC)C(c3cccc(OC)c3)C2)C1c1ccc([N+](=O)[O-])cc1` (stereo not given) showed an IFI of 1.16%. Turning to `CCOC(=O)c1ccc(N(C(=O)Cc2c[nH]c3ccccc23)C(C(=O)NC2CCCCC2)c2cccnc2)cc1` (stereo not given), the IFI stood at 3.7%.

The molecule `CC1C/C(=C/c2ccncc2)C(=O)/C(=C/c2ccncc2)C1` (stereo not given) had an IFI of 33.3%. `CCOC(=O)c1cnc2ccc(OC)cc2c1Nc1ccc(N2CCN(C)CC2)cc1` showed an IFI of 1.41%. The molecule `O=C(Nc1ccc(Oc2cccc(Oc3ccc(NC(=O)c4ccc(Br)o4)cc3)c2)cc1)c1ccc(Br)o1` yielded an IFI of 0%. With `Cc1ccc(C2CC(C(F)(F)F)n3ncc(C(=O)Nc4ccc(Cl)cc4)c3N2)cc1` (stereo not given), the IFI is 0%. The value for `C=CCNC(=O)c1ccc2c(c1)N=C(c1ccc(F)cc1)N(CCCC)C2` was 1.22%; that for `CCN(CC)C/C=C/C1(O)c2ccccc2-c2ccccc21` was 0%.

As for `Cc1cccc(NC(c2cccc(F)c2)c2ccc3cccnc3c2O)n1` (stereo not given), the IFI stood at 0%. In turn, `CCN(CC)CCCNC(=S)N(CCN(C)C)Cc1cc2cc(C)cc(C)c2[nH]c1=O` had an IFI of 3.39%.

`CCc1ccc2[nH]c(=O)c(CN(CCN(CC)CC)C(=S)NCCCN(CC)CC)cc2c1` registered an IFI of 4.63%.

The molecule `O=[N+]([O-])c1ccc(NCCNc2nc(N3CCCC3)nc3ccccc23)cc1` yielded an IFI of 0%. Molecule `c1ccc(N=c2sc(-c3ccccc3)cn2CCCCCCn2cc(-c3ccccc3)sc2=Nc2ccccc2)cc1` came in with an IFI of 0%. With `CC1(C)Cc2c(oc3ncn(CCn4cnc5oc6c(c5c4=N)CC(C)(C)SC6)c(=N)c23)CS1`, the IFI was found to be 0%.

As to `CC1=C(C(=O)OC2CCCCC2)C(c2ccc(F)c(F)c2)C2=C(CCCC2=O)N1` (stereo not given), the IFI came out at 2.35%.

`CC1CCC2C(C)C(O)OC3OC4(C)CCC1C32OO4` (stereo not given) showed an IFI of 7.55%.

Molecule `O=C(N/C(=C/C=C/c1ccccc1)C(=O)N1CCCCC1)c1ccc([N+](=O)[O-])cc1` registered an IFI of 0.685%. For `CN1CCN(CCCNc2ccnc3cc4ccccc4cc23)CC1`, the IFI was determined as 18.8%. The value for `c1ccc(Nc2nc(NCC3CCCO3)c3ccccc3n2)cc1` (stereo not given) was 0%. `O=C1C(O)=CC(=Nc2ccc(Cc3ccncc3)cc2)c2ccccc21` gave an IFI of 7.14%. Turning to `CC(=O)Nc1ccc2nc(C)sc2c1`, the IFI worked out at 0%. For `OCCNCCNCc1ccc2[nH]c3ccccc3c2c1`, the IFI came to 0%. Turning to `Cc1nc2c(c(C)nn2C)c(C)c1CCC(=O)N1CCCC1`, the IFI amounted to 5.56%. As to `COc1ccc(C2CC(=O)C3=C(C2)NC(C)=C(C(=O)OC(C)C)C3c2ccccc2Br)cc1OC` (stereo not given), the IFI was determined as 3.53%. On to `Nc1ccc2nc3ccc(N)cc3[s+]c2c1`, for which the IFI was 9.09%. Regarding `CCCCCCCCC(=O)NCCCCNc1ccnc2cc(Cl)ccc12`, the IFI is 2.86%. For `C=CCOc1cccc(/C=C2/NC(C)=C(C(=O)OCC)C2=O)c1`, the IFI came to 0%.

`CCOC(=O)c1cnc2c(C)cc(Cl)cc2c1Nc1ccc(OC)c(OC)c1` returned an IFI of 0%. `COc1cc2ncnc(NC3CCN(Cc4ccccc4)CC3)c2cc1OC`: the IFI was 2.4%. The molecule `CCCN1CCC(N2C[C@@H](NCc3ccc4c(c3)c3ccccc3n4CC)C[C@H]2C(=O)NCC)CC1` yielded an IFI of 4.9%. Molecule `COc1ccc(-c2cc(-c3ccccc3)nc(SCC(=O)N3c4ccccc4Sc4ccc(Cl)cc43)c2C#N)cc1` returned an IFI of 0%.

For the molecule `CC(C)NC(=O)N1CCN(C(=O)C(Cc2c[nH]c3ccccc23)NC(=O)Nc2cccc(Cl)c2Cl)CC1C` (stereo not given), the IFI was 1.89%. The value for `CC(C)N1CCCc2cc(CN3CCC(n4cc(C(=O)NCCCO)nn4)CC3)ccc21` was 2.61%. In turn, `CCCOC(=O)C1=C(C)NC2=C(C(=O)CC(c3ccc(OC)c(OC)c3)C2)C1c1ccccc1Br` (stereo not given) had an IFI of 3.57%. The value for `c1ccc(N=Nc2nnc(Nc3ccccc3)s2)cc1` was 0%; that for `CCN1/C(=C/c2cccc[n+]2C)C=Cc2ccccc21` was 8.33%; that for `CN(c1ccc(Br)cc1)S(=O)(=O)c1ccc2[nH]cc(C(=O)N3CCN(c4ccccc4)CC3)c(=O)c2c1` was 5.13%. For `Cc1ccccc1N(CC(=O)NCC1CCCO1)C(=O)c1snc(C(N)=O)c1N` (stereo not given), the IFI stood at 3.74%. With `O=C1C2=C(Nc3ccccc3SC2c2ccc(OCc3ccccc3)cc2)c2ccccc21` (stereo not given) the figure was 18.2%; with `Cc1cc(I)ccc1NC(=O)CNC(=O)OCc1ccccc1`, 0%; with `COc1ccc(C2C(C(=O)Nc3cc(C)on3)c3ccccc3C(=O)N2C2CCCCC2)cc1` (stereo not given), 0%. Molecule `CCN(C(C)=O)C1=C(N2CCOCC2)C(=O)c2ccccc2C1=O` registered an IFI of 0%. `O=S(=O)(NC1=CC2C(=Nc3ccc(NS(=O)(=O)c4ccc(Br)cc4)cc3N2c2ccccc2)C=C1)c1ccc(Br)cc1` (stereo not given) had an IFI of 7.14%.

`CCOC(=O)c1[nH]c(C)c(Cc2ccc(OCC)cc2)c1C`: the IFI amounted to 1.51%. `c1cn2c(-c3ccc(N4CCOCC4)cc3)cnc2c(NCc2ccc3c(c2)OCO3)n1` showed an IFI of 0%. `CCCSc1nc(N)c2c3c(sc2n1)CN(CCC)CC3` had an IFI of 12%. Take `CCOC(=O)c1c(C)n(-c2ccccc2)c2ccc(OC(=O)C3CC3)cc12`: the IFI was found to be 0%. As for `Cc1cc(OC(C)C(=O)N2CCc3ccccc32)ccc1Cl` (stereo not given), the IFI stood at 0%. In turn, `c1ccc(CCCNc2ccnc3cc4ccccc4cc23)cc1` returned an IFI of 13.6%. With `O=C(Nc1ccc(-c2nc3ccccc3[nH]2)cc1)c1ccccc1Oc1ccccc1` the figure was 6.74%. With `Cc1nc2cc(-c3ccc(F)cc3)nn2c(NCCCn2ccnc2)c1C` the figure was 0%. `CCOC(=O)c1cnc2ccc(OC)cc2c1Cl` registered an IFI of 0%. In turn, `COC(=O)c1ccc(C=NNc2cc(C)nc3ccc(OC)cc23)cc1` gave an IFI of 0%. As to `CCOC(=O)C1=C(C)NC2=C(C(=O)CC(c3ccc(OC)c(OC)c3)C2)C1c1ccc(Cl)c(Cl)c1` (stereo not given), the IFI was found to be 5.95%. The molecule `CCCCCCCCC(=O)N(C)CCCNc1ccnc2cc(Cl)ccc12` returned an IFI of 5.38%.

As for `CCCN(CCC)S(=O)(=O)c1ccc(C(=O)Nc2ccccc2C(=O)Oc2ccc3c(c2)c(C(=O)OCC)c(C)n3-c2ccccc2)cc1`, the IFI came out at 5.56%. The value for `CCC(C)NC(=O)c1nn(-c2ccc(OC)cc2)c(=O)c2ccccc12` (stereo not given) was 0%; that for `CCCOc1ccc(C(=O)Nc2cccc(-c3nc4ncccc4o3)c2)cc1` was 1.16%. For the molecule `CCc1c(C(=O)N2CCN(C(=O)CCl)C(C)C2)cnn1-c1nc(-c2ccc(Br)cc2)cs1` (stereo not given), the IFI was found to be 4.76%. As for `CC(C)(C)NC(=S)Nc1cccc(Cl)c1Cl`, the IFI was 2.27%. Take `CCCCN(CCCC)CC(O)c1cc(-c2ccc(Cl)cc2)nc2cc(Cl)ccc12` (stereo not given): the IFI worked out at 3.28%. The molecule `Oc1ccc(Br)cc1C=NNc1nc2ccccc2[nH]1` returned an IFI of 1.43%.

`COc1ccc(N)cc1NC(=O)c1ccc(Cl)cc1Cl` gave an IFI of 1.51%. For `CCOc1ccc(CN(C(=O)C(C)(C)CCl)C(C)CCCN(CC)CC)cc1` (stereo not given), the IFI was 1.83%. In turn, `CCCCCCN(C(=O)c1ccc(CCCCC)cc1)C(CC)c1nc2ccccc2c(=O)n1-c1ccccc1OC` (stereo not given) showed an IFI of 1.94%.

`COc1cc(CN2CCN(c3ccccn3)CC2)cc(I)c1O`: the IFI worked out at 0%. Turning to `COc1ccc(-c2cc(C(F)(F)F)n3ncc(C(=O)Nc4cc(C)ccc4O)c3n2)cc1OC`, the IFI was 3.45%. Consider `Cc1sc2ncnc(Nc3ccncc3)c2c1C`, for which the IFI came to 2.7%. `Cc1ccc(C)c(Nc2nc(NCC3CCCO3)c3ccccc3n2)c1` (stereo not given) returned an IFI of 2.98%.

Regarding `Nc1cc(OC(=O)c2ccccc2)nn1S(=O)(=O)c1ccc(Cl)cc1`, the IFI stood at 0%. As to `CCOC(=O)c1c(C)oc2c1c1c(c3ccccc32)OCN(C2CCCC2)C1`, the IFI is 0%. Regarding `N#Cc1ccccc1CN1CCC(Oc2cccc3onc(N)c23)CC1`, the IFI was 4.17%. With `Oc1ccc(-c2ccnc3cc(Cl)ccc23)cc1CNC1CCCCC1` the figure was 4.31%; with `Oc1ccc(-c2cncc(NCc3ccc4c(c3)OCO4)c2)cc1`, 3.33%. The value for `Cc1cccc(NC(=O)c2sc3nc4c(c(-c5cccs5)c3c2N)CCCCC4)c1` was 3.8%.

In turn, `CCCCCCC[N+](CC)(CC)CCCCc1ccc(Cl)cc1` came in with an IFI of 4.51%. In turn, `C(#Cc1ccccc1)C[N+]1(CC#Cc2ccc(C#CC[N+]3(CC#Cc4ccccc4)CCCCC3)cc2)CCCCC1` displayed an IFI of 14.3%. With `O=C(Nc1cc(Oc2ccc(F)cc2)cc([N+](=O)[O-])c1)c1nc2nc(-c3ccccc3)cc(C(F)(F)F)n2n1`, the IFI is 0%.

Take `CCN(CC)c1nc(S)nc(NC(C)(C)C)n1`: the IFI was 0%. The molecule `CN(C)CCN1CCN(c2ccnc3cc4ccccc4cc23)CC1` displayed an IFI of 5.8%. The molecule `COc1ccccc1N1CCN(c2ccc(NC(=O)/C=C/c3ccc([N+](=O)[O-])cc3)cc2C(=O)NCCCN(C)C)CC1` registered an IFI of 10.1%.

In turn, `CCN1CCCC1CNc1ncnc2c1[nH]c1ccc(C)cc12` (stereo not given) gave an IFI of 8%.
